In this data set the target is Escherichia coli (laboratory strain). Kind of data set: barcode share on antibiotic plates over drug-free plates; higher = less susceptible. As to the method:
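A pool of E. coli strains, each edited to carry one amino-acid change in an essential protein, was grown for 48 h on minimal glucose agar with or without antibiotic; strain barcodes were sequenced; mean of two replicates.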

The mark [1] stands for this setting: antibiotic: carbenicillin, 2× MIC (3.1 µg/mL).
Setting [2] is: antibiotic: gentamicin, 2× MIC (MIC 0.45 µg/mL).

Numbering of substitutions follows the chain as printed. Names may count otherwise. ± gives the standard deviation of the averaged measurements. Laboratory Escherichia coli strains with one amino-acid change in an essential protein, pooled on minimal glucose agar with carbenicillin or gentamicin at twice the control MIC (plus kanamycin and chloramphenicol for the plasmids), 48 h. Fold change of barcode share against drug-free plates; higher = less susceptible. Active = above 20 in both replicates (the paper's putatively resistant). '<' = one read or none on drug, '>' = one read or none on a drug-free plate. Shares are relative, so most strains fall below 1 when a few take over. Listed are strains with at least 15 reads on both drug-free plates, and hits; most hits rest on fewer reference reads. Replicate rank correlation about 0.5. Edits are read from barcodes.

B1: cysJ V364Q (protein)
chain: MTTQVPPSALLPLNPEQLARLQAATTDLTPTQLAWVSGYFWGVLNQQPAALAATPAPAAEMPGITIISASQTGNARRVAEALRDDLLAAKLNVKLVNAGDYKFKQIASEKLLIVVTSTQGEGEPPEEAVALHKFLFSKKAPKLENTAFAVFSLGDSSYEFFCQSGKDFDSKLAELGGERLLDRVDADVEYQAAASEWRARVVDALKSRAPVAAPSQSVATGAVNEIHTSPYSKDAPLVASLSVNQKITGRNSEKDVRHIEIDLGDSGMRYQPGDALGVWYQNDPALVKELVELLWLKGDEPVTVEGKTLPLNEALQWHFELTVNTANIVENYATLTRSETLLPLVGDKAKLQHYAATTPIVDMQRFSPAQLDAEALINLLRPLTPRLYSIASSQAEVENEVHVTVGVVRYDVEGRARAGGASSFLADRVEEEGEVRVFIEHNDNFRLPANPETPVIMIGPGTGIAPFRAFMQQRAADEAPGKNWLFFGNPHFTEDFLYQVEWQRYVKDGVLTRIDLAWSRDQKEKVYVQDKLREQGAELWRWINDGAHIYVCGDANRMAKDVEQALLEVIAEFGGMDTEAADEFLSELRVERRYQRDVY
Turning to B1, the “fold change of barcode share” value under setting [1] came to 0.324 ± 0.071 and the “fold change of barcode share” value under setting [2] is under 0.0139.

B2: cysJ V364D (protein)
chain: B1 chain with Q364D
As to B2, the “fold change of barcode share” value under setting [1] turned out to be 0.418 ± 0.043 and the “fold change of barcode share” value under setting [2] came to 0.0405 ± 0.024.

B3: cysJ M457W (protein)
chain: B1 chain with Q364V, M457W
In the case of B3, the “fold change of barcode share” value under setting [1] came to 0.391 ± 0.12.

B4: cysJ M363W (protein)
chain: B1 chain with M363W, Q364V
As to B4, the “fold change of barcode share” value under setting [1] is 0.405 ± 0.0068 and the “fold change of barcode share” value under setting [2] is 0.0182 ± 0.0035.

B5: cysJ M363A (protein)
chain: B1 chain with M363A, Q364V
Consider B5, for which the “fold change of barcode share” value reads like this: under setting [1], 0.492 ± 0.29; under setting [2], 0.0206 ± 0.016.

B6: cysJ M363Q (protein)
chain: B1 chain with M363Q, Q364V
As for B6, the “fold change of barcode share” value under setting [1] came out at 0.314 ± 0.16 and the “fold change of barcode share” value under setting [2] was 0.0137 ± 0.0032.

B7: cysJ I458W (protein)
chain: B1 chain with Q364V, I458W
With B7, the “fold change of barcode share” value under setting [1] worked out at 2.76 ± 0.95.

B8: cysJ V364P (protein)
chain: B1 chain with Q364P
Take B8: the “fold change of barcode share” value by setting is: under setting [1], 0.301 ± 0.0072; under setting [2], under 0.0091.

B9: cysJ I458Q (protein)
chain: B1 chain with Q364V, I458Q
As to B9, the “fold change of barcode share” value under setting [1] worked out at 2.42 ± 0.85.

For the origin of these results see the supplement of paper PMC11876631.
